The record followed here is US20210188986A1.

For this assay, the target named is combination of recombinant human TNFα and recombinant human OX40L. The experiment in a line: cell-based or functional assay.

B1: ISVD construct […] (VHH)
chain: DVQLVESGGGVVQPGGSLRLSCAASGRTFSSIYAKGWFRQAPGKEREFVAAISRSGRSTSYADSVKGRFTISRDNSKNTVYLQMNSLRPEDTALYYCAAVGGATTVTASEWDYWGQGTLVTVSSGGGGSGGGSEVQLVESGGGVVQPGGSLRLSCAASGRTFSSIYAKGWFRQAPGKEREFVAAISRSGRSTSYADSVKGRFTISRDNSKNTVYLQMNSLRPEDTALYYCAAVGGATTVTASEWDYWGQGTLVTVSSGGGGSGGGS[about 120 residues skipped]GGGGSGGGSEVQLVESGGGVVQPGGSLRLSCAASGFTFRSFGMSWVRQAPGKGPEWVSSISGSGSDTLYADSVKGRFTISRDNSKNTLYLQMNSLRPEDTALYYCTIGGSLSRSSQGTLVTVSSGGGGSGGGSEVQLVESGGGVVQPGGSLRLS[about 80 residues skipped]RGQGTLVKVSSA
B1: the % inhibition, Jurkat OX40/TNF-NFκB reporter assay worked out at 100%.
